Measurements reported in patent publication US20240294594A1 (CYTUNE PHARMA, published 2024).

T1: IL-2/IL-15Rβγ (on cells) (UniProt P14784 27-551; P31785 23-369, limits assumed)
T1 sequence (looked up) 1: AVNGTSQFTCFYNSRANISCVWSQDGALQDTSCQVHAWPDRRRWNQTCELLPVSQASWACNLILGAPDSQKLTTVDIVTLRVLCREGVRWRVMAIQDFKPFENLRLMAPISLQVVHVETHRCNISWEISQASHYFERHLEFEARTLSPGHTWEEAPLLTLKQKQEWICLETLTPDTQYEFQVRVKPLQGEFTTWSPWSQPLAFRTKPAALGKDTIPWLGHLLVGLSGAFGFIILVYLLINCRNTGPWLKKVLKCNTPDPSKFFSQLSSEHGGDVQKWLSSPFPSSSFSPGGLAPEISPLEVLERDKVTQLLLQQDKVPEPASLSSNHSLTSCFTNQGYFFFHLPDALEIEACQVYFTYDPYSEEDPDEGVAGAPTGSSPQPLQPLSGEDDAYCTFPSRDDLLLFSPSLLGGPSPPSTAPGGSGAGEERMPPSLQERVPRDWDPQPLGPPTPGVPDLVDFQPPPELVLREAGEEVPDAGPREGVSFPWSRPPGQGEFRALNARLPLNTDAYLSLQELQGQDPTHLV
T1 sequence (looked up) 2: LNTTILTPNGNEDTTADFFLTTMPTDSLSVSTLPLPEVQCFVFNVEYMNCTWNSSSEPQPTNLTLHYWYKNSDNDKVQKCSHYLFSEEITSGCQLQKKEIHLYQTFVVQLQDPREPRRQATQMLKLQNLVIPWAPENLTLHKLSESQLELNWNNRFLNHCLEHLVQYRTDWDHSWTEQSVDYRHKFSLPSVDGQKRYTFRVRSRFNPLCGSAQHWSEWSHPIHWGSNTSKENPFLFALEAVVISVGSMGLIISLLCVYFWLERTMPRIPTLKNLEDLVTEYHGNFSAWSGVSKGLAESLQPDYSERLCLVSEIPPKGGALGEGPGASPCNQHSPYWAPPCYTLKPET


biological target: T1, IL-2/IL-15Rβγ (on cells); assay: cell-based or functional assay

Binder	EC50 kit225 cells pM	Relative potency/kit225 cells
PEM LE-RLI-AD x1 (other) heavy 1: QVQLVQSGVEVKKPGASVKVSCKASGYTFTNYYMYWVRQAPGQGLEWMGGINPSNGGTNFNEKFKNRVTLTTDSSTTTAYMELKSLQFDDTAVYYCARRDYRFDMGFDYWGQGTTVTVSSASTKGPSVFPLAPCSRSTSESTAALGCLVKDYFPEPVTVSWNSGALTSGVHTFPAVLQSSGLYSLSSVVTVPSSSLGTKTYTCNVDHKPSNTKVDKRV[not shown - human IgG4 Fc with S228P L235E T366W (EU numbers)]ITCPPPMSVEHADIWVKSYSLYSRERYICNSGFKRKAGTSSLTECVLNKATNVAHWTTPSLKCIRDPALVHQRPAPPSGGSGGGGSGGGSGGGGSGGNWVNVISDLAKIEDLIQSMHIDATLYTESDVHPSCKVTAMKCFLLELQVISLESGDASIHDTVENLIILANNSLSSNAQVTESGCKECEELEEKNIKEFLDSFVHIVQMFINTS heavy 2: QVQLVQSGVEVKKPGASVKVSCKASGYTFTNYYMYWVRQAPGQGLEWMGGINPSNGGTNFNEKFKNRVTLTTDSSTTTAYMELKSLQFDDTAVYYCARRDYRFDMGFDYWGQGTTVTVSSASTKGPSVFPLAPCSRSTSESTAALGCLVKDYFPEPVTVSWNSGALTSGVHTFPAVLQSSGLYSLSSVVTVPSSSLGTKTYTCNVDHKPSNTKVDKRVESKYGPPCPPCPAPEFEGGPSVFLFPPKPKDTLMISRTPEVTCVVVDVSQEDPEVQFNWYVDGVEVHNAKTKPREEQFNSTYRVVSVLTVLHQDWLNGKEYKCKVSNKGLPSSIEKTISKAKGQPREPQVYTLPPSQEEMTKNQVSLSCAVKGFYPSDIAVEWESNGQPENNYKTTPPVLDSDGSFFLVSRLTVDKSRWQEGNVFSCSVMHEALHNHYTQKSLSLSLG light: EIVLTQSPATLSLSPGERATLSCRASKGVSTSGYSYLHWYQQKPGQAPRLLIYLASYLESGVPARFSGSGSGTDFTLTISSLEPEDFAVYYCQHSRDLPLTFGGGTKVEIKRTVAAPSVFIFPPSDEQLKSGTASVVCLLNNFYPREAKVQWKVDNALQSGNSQESVTEQDSKDSTYSLSSTLTLSKADYEKHKVYACEVTHQGLSSPVTKSFNRGEC	603 pM	8.5%
PEM LE-RLI-AD x2 (other) heavy: QVQLVQSGVEVKKPGASVKVSCKASGYTFTNYYMYWVRQAPGQGLEWMGGINPSNGGTNFNEKFKNRVTLTTDSSTTTAYMELKSLQFDDTAVYYCARRDYRFDMGFDYWGQGTTVTVSSASTKGPSVFPLAPCSRSTSESTAALGCLVKDYFPEPVTVSWNSGALTSGVHTFPAVLQSSGLYSLSSVVTVPSSSLGTKTYTCNVDHKPSNTKVDKRV[not shown - human IgG4 Fc with changes]ITCPPPMSVEHADIWVKSYSLYSRERYICNSGFKRKAGTSSLTECVLNKATNVAHWTTPSLKCIRDPALVHQRPAPPSGGSGGGGSGGGSGGGGSGGNWVNVISDLAKIEDLIQSMHIDATLYTESDVHPSCKVTAMKCFLLELQVISLESGDASIHDTVENLIILANNSLSSNAQVTESGCKECEELEEKNIKEFLDSFVHIVQMFINTS light: EIVLTQSPATLSLSPGERATLSCRASKGVSTSGYSYLHWYQQKPGQAPRLLIYLASYLESGVPARFSGSGSGTDFTLTISSLEPEDFAVYYCQHSRDLPLTFGGGTKVEIKRTVAAPSVFIFPPSDEQLKSGTASVVCLLNNFYPREAKVQWKVDNALQSGNSQESVTEQDSKDSTYSLSSTLTLSKADYEKHKVYACEVTHQGLSSPVTKSFNRGEC	122 pM	42%
PEM LE-RLI-DA x1 (other) heavy 1: QVQLVQSGVEVKKPGASVKVSCKASGYTFTNYYMYWVRQAPGQGLEWMGGINPSNGGTNFNEKFKNRVTLTTDSSTTTAYMELKSLQFDDTAVYYCARRDYRFDMGFDYWGQGTTVTVSSASTKGPSVFPLAPCSRSTSESTAALGCLVKDYFPEPVTVSWNSGALTSGVHTFPAVLQSSGLYSLSSVVTVPSSSLGTKTYTCNVDHKPSNTKVDKRV[not shown - human IgG4 Fc with S228P L235E T366W (EU numbers)]ITCPPPMSVEHADIWVKSYSLYSRERYICNSGFKRKAGTSSLTECVLNKATNVAHWTTPSLKCIRDPALVHQRPAPPSGGSGGGGSGGGSGGGGSGGNWVNVISDLKKIEDLIQSMHIDATLYTESDVHPSCKVTAMKCFLLELQVISLESGDASIHATVENLIILANNSLSSNAQVTESGCKECEELEEKNIKEFLQSFVHIVQMFINTS heavy 2: QVQLVQSGVEVKKPGASVKVSCKASGYTFTNYYMYWVRQAPGQGLEWMGGINPSNGGTNFNEKFKNRVTLTTDSSTTTAYMELKSLQFDDTAVYYCARRDYRFDMGFDYWGQGTTVTVSSASTKGPSVFPLAPCSRSTSESTAALGCLVKDYFPEPVTVSWNSGALTSGVHTFPAVLQSSGLYSLSSVVTVPSSSLGTKTYTCNVDHKPSNTKVDKRVESKYGPPCPPCPAPEFEGGPSVFLFPPKPKDTLMISRTPEVTCVVVDVSQEDPEVQFNWYVDGVEVHNAKTKPREEQFNSTYRVVSVLTVLHQDWLNGKEYKCKVSNKGLPSSIEKTISKAKGQPREPQVYTLPPSQEEMTKNQVSLSCAVKGFYPSDIAVEWESNGQPENNYKTTPPVLDSDGSFFLVSRLTVDKSRWQEGNVFSCSVMHEALHNHYTQKSLSLSLG light: EIVLTQSPATLSLSPGERATLSCRASKGVSTSGYSYLHWYQQKPGQAPRLLIYLASYLESGVPARFSGSGSGTDFTLTISSLEPEDFAVYYCQHSRDLPLTFGGGTKVEIKRTVAAPSVFIFPPSDEQLKSGTASVVCLLNNFYPREAKVQWKVDNALQSGNSQESVTEQDSKDSTYSLSSTLTLSKADYEKHKVYACEVTHQGLSSPVTKSFNRGEC	4480 pM	1.1%
PEM LE-RLI-DA x2 (other) heavy: QVQLVQSGVEVKKPGASVKVSCKASGYTFTNYYMYWVRQAPGQGLEWMGGINPSNGGTNFNEKFKNRVTLTTDSSTTTAYMELKSLQFDDTAVYYCARRDYRFDMGFDYWGQGTTVTVSSASTKGPSVFPLAPCSRSTSESTAALGCLVKDYFPEPVTVSWNSGALTSGVHTFPAVLQSSGLYSLSSVVTVPSSSLGTKTYTCNVDHKPSNTKVDKRV[not shown - human IgG4 Fc with changes]ITCPPPMSVEHADIWVKSYSLYSRERYICNSGFKRKAGTSSLTECVLNKATNVAHWTTPSLKCIRDPALVHQRPAPPSGGSGGGGSGGGSGGGGSGGNWVNVISDLKKIEDLIQSMHIDATLYTESDVHPSCKVTAMKCFLLELQVISLESGDASIHATVENLIILANNSLSSNAQVTESGCKECEELEEKNIKEFLQSFVHIVQMFINTS light: EIVLTQSPATLSLSPGERATLSCRASKGVSTSGYSYLHWYQQKPGQAPRLLIYLASYLESGVPARFSGSGSGTDFTLTISSLEPEDFAVYYCQHSRDLPLTFGGGTKVEIKRTVAAPSVFIFPPSDEQLKSGTASVVCLLNNFYPREAKVQWKVDNALQSGNSQESVTEQDSKDSTYSLSSTLTLSKADYEKHKVYACEVTHQGLSSPVTKSFNRGEC	1620 pM	3.1%
PEM LE-RLI-NA x1 (other) heavy 1: QVQLVQSGVEVKKPGASVKVSCKASGYTFTNYYMYWVRQAPGQGLEWMGGINPSNGGTNFNEKFKNRVTLTTDSSTTTAYMELKSLQFDDTAVYYCARRDYRFDMGFDYWGQGTTVTVSSASTKGPSVFPLAPCSRSTSESTAALGCLVKDYFPEPVTVSWNSGALTSGVHTFPAVLQSSGLYSLSSVVTVPSSSLGTKTYTCNVDHKPSNTKVDKRV[not shown - human IgG4 Fc with S228P L235E T366W (EU numbers)]ITCPPPMSVEHADIWVKSYSLYSRERYICNSGFKRKAGTSSLTECVLNKATNVAHWTTPSLKCIRDPALVHQRPAPPSGGSGGGGSGGGSGGGGSGGNWVNVISDLKKIEDLIQSMHIDATLYTESDVHPSCKVTAMKCFLLELQVISLESGDASIHDTVEALIILANNSLSSNAQVTESGCKECEELEEKNIKEFLQSFVHIVQMFINTS heavy 2: QVQLVQSGVEVKKPGASVKVSCKASGYTFTNYYMYWVRQAPGQGLEWMGGINPSNGGTNFNEKFKNRVTLTTDSSTTTAYMELKSLQFDDTAVYYCARRDYRFDMGFDYWGQGTTVTVSSASTKGPSVFPLAPCSRSTSESTAALGCLVKDYFPEPVTVSWNSGALTSGVHTFPAVLQSSGLYSLSSVVTVPSSSLGTKTYTCNVDHKPSNTKVDKRVESKYGPPCPPCPAPEFEGGPSVFLFPPKPKDTLMISRTPEVTCVVVDVSQEDPEVQFNWYVDGVEVHNAKTKPREEQFNSTYRVVSVLTVLHQDWLNGKEYKCKVSNKGLPSSIEKTISKAKGQPREPQVYTLPPSQEEMTKNQVSLSCAVKGFYPSDIAVEWESNGQPENNYKTTPPVLDSDGSFFLVSRLTVDKSRWQEGNVFSCSVMHEALHNHYTQKSLSLSLG light: EIVLTQSPATLSLSPGERATLSCRASKGVSTSGYSYLHWYQQKPGQAPRLLIYLASYLESGVPARFSGSGSGTDFTLTISSLEPEDFAVYYCQHSRDLPLTFGGGTKVEIKRTVAAPSVFIFPPSDEQLKSGTASVVCLLNNFYPREAKVQWKVDNALQSGNSQESVTEQDSKDSTYSLSSTLTLSKADYEKHKVYACEVTHQGLSSPVTKSFNRGEC	14000 pM	0.36%
